# Reference: a collection of fitness landscapes (doi:10.1038/s41467-024-54723-y)
# In all, about 18,000 sequences were measured (“TetR repression strength (sort-seq, GFP reporter)”: median about 0.23, highest 2% from about 0.68 on). The list shows a part of the results.
# Target: TetR (class B, Tn10) (UniProt P04483)
# Experiment: TetR repression strength (sort-seq, GFP reporter) (relative to tetO2 = 1); higher = stronger repression
# Settings: E. coli
# Method in brief: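 Three independent transformations of E. coli SIG10-MAX were made with a low-copy plasmid library randomizing eight operator positions between a constitutive promoter and sfGFP, with constitutive TetR. Following 5 h at 37 °C in LB plus 50 µg/mL chloramphenicol, 10^6 cells went through FACS into 13 fluorescence bins, and each bin was sequenced by Illumina. Repression strength was defined as the top bin index plus one minus the read-weighted mean bin, divided by the unaltered operator's value. Averages included only members reaching ≥30 reads in all replicates with a CV ≤0.5.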
# Chain of UniProt P04483 (P04483 whole entry): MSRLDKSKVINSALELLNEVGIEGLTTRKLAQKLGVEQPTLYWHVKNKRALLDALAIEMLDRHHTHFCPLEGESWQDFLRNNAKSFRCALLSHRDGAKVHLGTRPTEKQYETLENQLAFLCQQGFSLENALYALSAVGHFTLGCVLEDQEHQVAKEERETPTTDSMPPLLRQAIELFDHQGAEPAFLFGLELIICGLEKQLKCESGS
row,Sequence,TetR repression strength
1,TCCCGAGGAGTGGTGGAGA,0.104
2,TCCCCGCCAGTCGGGGAGA,0.179
3,TCCCTAGCAGTCAAAGAGA,0.295
4,TCCCCCGTAGTGAAGGAGA,0.163
5,TCCCTTTGAGTTGTTGAGA,0.341
6,TCCCGTAAAGTCAACGAGA,0.311
7,TCCCTGGGAGTAAAGGAGA,0.0803
8,TCCCATAAAGTGAGGGAGA,0.243
9,TCCCTCTGAGTAGGGGAGA,0.224
10,TCCCTAAGAGTACACGAGA,0.166
11,TCCCGAGCAGTAAGCGAGA,0.344
12,TCCCGCCGAGTTGTTGAGA,0.0225
13,TCCCGGGGAGTAGACGAGA,0.339
14,TCCCGCATAGTTTGGGAGA,0.207
15,TCCCTGGCAGTAGGGGAGA,0.185
16,TCCCCAGTAGTTGGTGAGA,0.114
17,TCCCATGTAGTGTTTGAGA,0.104
18,TCCCCAATAGTAGAGGAGA,0.37
19,TCCCCCCTAGTAGCAGAGA,0.32
20,TCCCGTGTAGTTGGGGAGA,0.248
21,TCCCGAACAGTGGCGGAGA,0.0919
22,TCCCGGAAAGTAACGGAGA,0.0312
23,TCCCTAAGAGTTTGGGAGA,0.111
24,TCCCGTTCAGTTTAAGAGA,0.481
25,TCCCGTAGAGTCTCTGAGA,0.183
26,TCCCCCGGAGTGTGTGAGA,0.281

row,Sequence,TetR repression strength
1,TCCCAACAAGTCGGAGAGA,0.324
2,TCCCCGCTAGTAGTGGAGA,0.347
3,TCCCGTGGAGTATTTGAGA,0.338
4,TCCCGGTCAGTAGATGAGA,0.197
5,TCCCTATCAGTCGTAGAGA,0.557
6,TCCCAGAAAGTGAGGGAGA,0.254
7,TCCCGAGTAGTGGATGAGA,0.149
8,TCCCGGGGAGTGTGGGAGA,0.25
9,TCCCGCGTAGTCGATGAGA,0.303
10,TCCCTAATAGTATGTGAGA,0.253
11,TCCCCGTCAGTTTCTGAGA,0.0269
12,TCCCGTACAGTATCGGAGA,0.253
13,TCCCCCTGAGTGTGCGAGA,0.518
14,TCCCCTGCAGTGTTTGAGA,0.418
15,TCCCACAGAGTTAGGGAGA,0.22
16,TCCCTTTTAGTGCTTGAGA,0.322
17,TCCCAGTTAGTCTCCGAGA,0.178
18,TCCCTTTGAGTTTCGGAGA,0.148
19,TCCCGTCTAGTGGCTGAGA,0.22
20,TCCCAGGCAGTGCCAGAGA,0.0122
21,TCCCGTAGAGTGGGCGAGA,0.193
22,TCCCTCCGAGTGCAGGAGA,0.492
23,TCCCATAGAGTATAGGAGA,0.181
24,TCCCGAACAGTGTCGGAGA,0.191
25,TCCCTGTGAGTTAGGGAGA,0.285
26,TCCCATGAAGTACATGAGA,0.235

row,Sequence,TetR repression strength
1,TCCCGTTAAGTGGACGAGA,0.0963
2,TCCCGGATAGTCTTTGAGA,0.125
3,TCCCGGATAGTCTAGGAGA,0.179
4,TCCCCAAAAGTTGTTGAGA,0.452
5,TCCCGAATAGTTGCGGAGA,0.101
6,TCCCCAGGAGTACGCGAGA,0.207
7,TCCCCAGGAGTGGTAGAGA,0.189
8,TCCCGTATAGTAGGGGAGA,0.0295
9,TCCCATGGAGTTAAAGAGA,0.356
10,TCCCCGGAAGTTTTCGAGA,0.107
11,TCCCTCACAGTGGTAGAGA,0.157
12,TCCCCTATAGTACAGGAGA,0.792
13,TCCCCGTAAGTATGCGAGA,0.0115
14,TCCCTGATAGTGTAGGAGA,0.0352
15,TCCCTGTCAGTCTTAGAGA,0.117
16,TCCCAGGGAGTAGTGGAGA,0.166
17,TCCCCGGAAGTGTGTGAGA,0.208
18,TCCCAACCAGTTGAGGAGA,0.248
19,TCCCTGGCAGTCGGCGAGA,0.362
20,TCCCGTATAGTGGGCGAGA,0.0906
21,TCCCCAGGAGTCCAGGAGA,0.321
22,TCCCGGCGAGTCCTCGAGA,0.458
23,TCCCCGGCAGTCGAGGAGA,0.0942
24,TCCCCGCTAGTGGAGGAGA,0.234
25,TCCCCACGAGTAGTCGAGA,0
26,TCCCTACGAGTGTCGGAGA,0.258

row,Sequence,TetR repression strength
1,TCCCTAGTAGTTGTTGAGA,0.308
2,TCCCGTACAGTGATTGAGA,0.368
3,TCCCATCTAGTTATAGAGA,0.333
4,TCCCGTTTAGTGGTCGAGA,0.0709
5,TCCCGGTAAGTACGAGAGA,0.218
6,TCCCGCGCAGTGCATGAGA,0.281
7,TCCCTGGGAGTATTGGAGA,0.191
8,TCCCTTCAAGTTCTGGAGA,1.03
9,TCCCCCTTAGTTTTGGAGA,0.162
10,TCCCTCGGAGTGGTGGAGA,0.157
11,TCCCAGCCAGTGCGGGAGA,0.255
12,TCCCGGAAAGTCTGCGAGA,0.201
13,TCCCAGGGAGTGGACGAGA,0.379
14,TCCCATTCAGTATTAGAGA,0.443
15,TCCCGGGCAGTGTATGAGA,0.135
16,TCCCACGCAGTGTTGGAGA,0.393
17,TCCCTTGGAGTCGATGAGA,0.0828
18,TCCCGCTTAGTGTGTGAGA,0.218
19,TCCCGCAGAGTTAGAGAGA,0.5
20,TCCCCATCAGTGGGGGAGA,0.275
21,TCCCTTGCAGTATTAGAGA,0.235
22,TCCCGTCGAGTTAGGGAGA,0.0766
23,TCCCAGCCAGTGAACGAGA,0.124
24,TCCCGTTCAGTGGACGAGA,0.323
25,TCCCGGTCAGTGTACGAGA,0.0518
26,TCCCAGAAAGTTGTCGAGA,0.342

row,Sequence,TetR repression strength
1,TCCCGGCAAGTGGGAGAGA,0.243
2,TCCCACGCAGTAACGGAGA,0.0156
3,TCCCATGTAGTAGGGGAGA,0.245
4,TCCCGTGGAGTATGTGAGA,0.359
5,TCCCATTCAGTAACGGAGA,0.239
6,TCCCGCTCAGTCTGCGAGA,0.518
7,TCCCGTGCAGTGCTTGAGA,0.207
8,TCCCATCGAGTGGCGGAGA,0.497
9,TCCCGTTCAGTTGTGGAGA,0.203
10,TCCCCGTGAGTAAGGGAGA,0.0601
11,TCCCGTGAAGTGGCCGAGA,0.346
12,TCCCTATAAGTTGAAGAGA,0.478
13,TCCCGAACAGTAGCTGAGA,0.291
14,TCCCGCTCAGTAAGCGAGA,0.257
15,TCCCCTCAAGTTAGCGAGA,0.742
16,TCCCGGTGAGTGGACGAGA,0.496
17,TCCCCGGGAGTCTTTGAGA,0.311
18,TCCCGGTTAGTAGCGGAGA,0.249
19,TCCCTGTGAGTGAGGGAGA,0.111
20,TCCCTGAGAGTGGCGGAGA,0.164
21,TCCCAGCAAGTTCGAGAGA,0.176
22,TCCCGGTAAGTTAATGAGA,0.321
23,TCCCTTAAAGTCTAGGAGA,0.142
24,TCCCTTGTAGTAGTTGAGA,0.117
25,TCCCGGAGAGTCTTAGAGA,0.344
26,TCCCACTCAGTTATTGAGA,0.447

row,Sequence,TetR repression strength
1,TCCCCAGTAGTGGCTGAGA,0.19
2,TCCCTTCCAGTCAGGGAGA,0.392
3,TCCCGGGGAGTTTAGGAGA,0.308
4,TCCCCGAAAGTTTAAGAGA,0.347
5,TCCCGTTGAGTCTTTGAGA,0.538
6,TCCCGGGAAGTCCTCGAGA,0.985
7,TCCCTGTGAGTTAGCGAGA,0.226
8,TCCCGTGGAGTTGGGGAGA,0.232
9,TCCCATGGAGTTATGGAGA,0.545
10,TCCCAGCCAGTGGGCGAGA,0.226
11,TCCCTAACAGTTTTGGAGA,0.275
12,TCCCATATAGTTGGGGAGA,0.208
13,TCCCACAAAGTGGGAGAGA,0.255
14,TCCCTGGGAGTGCGTGAGA,0.341
15,TCCCGAGCAGTTATAGAGA,0.686
16,TCCCCGCTAGTGGCTGAGA,0.438
17,TCCCTCACAGTGCAAGAGA,0.374
18,TCCCAGGCAGTCGCGGAGA,0.249
19,TCCCTCTTAGTTGTAGAGA,0.118
20,TCCCACGTAGTATGGGAGA,0.00864
21,TCCCACGGAGTCGCTGAGA,0.358
22,TCCCACCAAGTAGCGGAGA,0.104
23,TCCCTCTTAGTATCAGAGA,0.325
24,TCCCGTCCAGTGGCTGAGA,0.123
25,TCCCCTGGAGTACGGGAGA,0.0647
26,TCCCAGAAAGTGCGGGAGA,0.143

row,Sequence,TetR repression strength
1,TCCCGATTAGTCTGGGAGA,0.173
2,TCCCTTACAGTTTTGGAGA,0.0352
3,TCCCCGATAGTACGTGAGA,0.185
4,TCCCACAGAGTATGTGAGA,1.24
5,TCCCTATGAGTACGTGAGA,0.409
6,TCCCTGCGAGTGTGGGAGA,0.143
7,TCCCAGTTAGTTTACGAGA,0.32
8,TCCCCCAGAGTTGTAGAGA,0.335
9,TCCCCGAGAGTAAGGGAGA,0.204
10,TCCCATACAGTCGCGGAGA,0.192
11,TCCCAGCGAGTACTCGAGA,0.198
12,TCCCTGTCAGTCTGAGAGA,0.247
13,TCCCGAGCAGTGCTAGAGA,0.661
14,TCCCGAGTAGTGGCAGAGA,0.209
15,TCCCTGACAGTATGGGAGA,0.117
16,TCCCCTCTAGTCAGGGAGA,0.496
17,TCCCGCGAAGTGTAGGAGA,0.0797
18,TCCCGCTTAGTGAGCGAGA,0.201
19,TCCCAGGCAGTGTAGGAGA,0.435
20,TCCCCTCTAGTAGACGAGA,0.301
21,TCCCGGTGAGTCCAGGAGA,0.198
22,TCCCACCTAGTATCGGAGA,0.592
23,TCCCGGGTAGTTAATGAGA,1
24,TCCCACACAGTATGGGAGA,0.296
25,TCCCCAAGAGTTTGTGAGA,0.0286
26,TCCCGAGGAGTACCGGAGA,0.408

row,Sequence,TetR repression strength
1,TCCCGTGCAGTTGGGGAGA,0.314
2,TCCCGGACAGTTATGGAGA,0.318
3,TCCCGGTAAGTGAGGGAGA,0.073
4,TCCCATGTAGTGGTGGAGA,0.202
5,TCCCTTACAGTTTTTGAGA,0.366
6,TCCCTGTTAGTTAGAGAGA,0.452
7,TCCCCGTGAGTTGGTGAGA,0.195
8,TCCCGTTGAGTCGGCGAGA,0.157
9,TCCCCGGAAGTTACGGAGA,0.343
10,TCCCGGTCAGTTTCGGAGA,0.159
11,TCCCTTGCAGTTTAAGAGA,0.259
12,TCCCAGCTAGTGTCTGAGA,0.283
13,TCCCGCCGAGTGGAGGAGA,0.0933
14,TCCCAAAAAGTCTGAGAGA,0.58
15,TCCCGGACAGTCTACGAGA,0.262
16,TCCCCATAAGTGATAGAGA,0.522
17,TCCCACTGAGTGAAGGAGA,0.00864
18,TCCCTCGGAGTTAACGAGA,0.114
19,TCCCTGTCAGTGTGGGAGA,0.471
20,TCCCTGTCAGTGGGGGAGA,0.229
21,TCCCGGTGAGTCAGGGAGA,0.228
22,TCCCCTAAAGTGGCGGAGA,0.176
